Screen size: about 310,000 compounds; about 14,000 (4.5%) showed an effect of 50% or more. The effect is printed as a negative number. The list shows a part of the results.
Each compound was assayed against human ether-à-go-go-related gene (hERG) potassium channel (human, UniProt Q12809) (assay: primary screen, population patch clamp on CHO cells stably expressing hERG).
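Also: peak tail current of the secondary pulse compared with the same well before compound.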

Chain of human ether-à-go-go-related gene (hERG) potassium channel (Q12809 whole entry, looked up): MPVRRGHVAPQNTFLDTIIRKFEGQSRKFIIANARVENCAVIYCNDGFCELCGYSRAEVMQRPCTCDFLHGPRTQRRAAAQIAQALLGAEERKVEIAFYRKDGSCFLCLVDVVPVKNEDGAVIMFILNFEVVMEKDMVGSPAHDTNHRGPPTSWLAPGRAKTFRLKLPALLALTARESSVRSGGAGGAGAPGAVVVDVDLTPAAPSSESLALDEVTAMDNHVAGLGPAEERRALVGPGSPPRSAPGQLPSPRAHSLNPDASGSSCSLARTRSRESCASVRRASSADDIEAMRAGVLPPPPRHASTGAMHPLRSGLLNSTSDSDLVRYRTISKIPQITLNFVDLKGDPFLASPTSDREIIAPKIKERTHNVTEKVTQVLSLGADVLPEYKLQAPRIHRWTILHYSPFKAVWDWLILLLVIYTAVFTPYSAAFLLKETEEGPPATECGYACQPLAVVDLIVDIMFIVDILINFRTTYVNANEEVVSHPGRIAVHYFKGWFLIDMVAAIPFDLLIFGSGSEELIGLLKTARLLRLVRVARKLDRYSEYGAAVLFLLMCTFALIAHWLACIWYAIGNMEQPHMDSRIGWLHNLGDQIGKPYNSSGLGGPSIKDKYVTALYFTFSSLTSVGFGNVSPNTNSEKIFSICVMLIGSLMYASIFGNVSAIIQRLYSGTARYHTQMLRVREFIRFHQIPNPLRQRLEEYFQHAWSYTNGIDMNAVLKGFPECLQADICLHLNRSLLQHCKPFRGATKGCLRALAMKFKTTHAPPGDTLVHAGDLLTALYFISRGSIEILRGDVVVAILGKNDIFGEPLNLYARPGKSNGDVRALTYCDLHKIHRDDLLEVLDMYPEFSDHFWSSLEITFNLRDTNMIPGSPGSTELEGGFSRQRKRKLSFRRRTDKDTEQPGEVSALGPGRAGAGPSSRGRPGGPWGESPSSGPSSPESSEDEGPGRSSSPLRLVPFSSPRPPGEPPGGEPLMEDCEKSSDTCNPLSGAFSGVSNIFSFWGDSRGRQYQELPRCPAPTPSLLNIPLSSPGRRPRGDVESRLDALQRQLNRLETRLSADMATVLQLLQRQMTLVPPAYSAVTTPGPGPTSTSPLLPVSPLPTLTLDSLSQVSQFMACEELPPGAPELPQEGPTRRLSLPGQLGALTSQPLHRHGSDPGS

Row | SMILES | hERG current change (%, negative = inhibition) at 10uM [%]
1 | CCOc1ccccc1C1NC(=O)NC(C)=C1C(=O)OCc1ccccc1 (stereo not shown) | 7.91
2 | O=C(NCCCN1CCCC1=O)c1c(O)nc2ccccn2c1=O | 17.3
3 | COC(=O)c1ccc(NC(=O)c2ccccc2CC[N+](=O)[O-])cc1 | 11
4 | Cc1cc(-c2nnco2)c(C)n1-c1ccccc1 | -1.71
5 | CC(=O)Nc1ccc(OCC(O)CN2CCN(c3cccc(Cl)c3)CC2)cc1 (stereo not shown) | -25.2
6 | COc1cc2c(C(=O)NCCCOC(C)C)cn(CC(C)C)c(=O)c2cc1OC | 5.22
7 | COc1cccc(N(CC(=O)NC2CCCCC2)C(=O)CCC(=O)Nc2nccs2)c1 | 4.13
8 | O=C(C(Cc1ccccc1)n1cccc1)N1CCCCCC1 (stereo not shown) | 12.1
9 | C=CCNC(=S)N(CC=C)C1CCS(=O)(=O)C1 (stereo not shown) | 11.7
10 | COc1ccc(NC(=O)C2CCN(C(=O)c3cccs3)CC2)c(OC)c1 | -1.83
11 | CC(Sc1nnc(-c2ccncc2)n1C)C(=O)Nc1ccc(N2CCOCC2)cc1 (stereo not shown) | -15.2
12 | CC(CNC(=O)c1ccc(-c2ccccc2)cc1)CN(C)C (stereo not shown) | -38.2
13 | CN(C)c1ccc(C=C2C(=O)NC(=S)NC2=O)cc1[N+](=O)[O-] | 20.9
14 | Cc1ccc(CCN2CCN=C2Nc2ccccc2)cc1 | -25.9
15 | CN(C(=O)Cn1nnc(-c2ccc(F)cc2)n1)C1CCS(=O)(=O)C1 (stereo not shown) | -2.38
16 | Cc1ccc(-c2ccc(OCC(=O)N3CCOCC3)cc2)cc1 | -13
17 | CCc1cc2c(C)cc(=O)oc2cc1OC(=O)C1CCCN1C(=O)OC(C)(C)C (stereo not shown) | -14.1
18 | COC(=O)CSc1nc2[nH]ncc2c(=O)[nH]1 | -4.98
19 | NCCc1nnc(SCC(=O)c2ccc(Cl)cc2)o1 | 0.757
20 | Cc1cc2cc(C(c3nnnn3C(C)(C)C)N(Cc3ccco3)CC3CCCO3)c(=O)[nH]c2cc1C (stereo not shown) | -14.9
21 | O=C(COC(=O)/C=C/c1ccc(Cl)cc1)Nc1ccccc1 | 18.6
22 | CCN(CC)c1ccc(/C=N/NC(=O)Cc2cccs2)cc1 | -16.6
23 | COc1ccc(C(C(=O)NC(C)(C)C)N(C(=O)Cn2nnc3ccccc32)c2ccc(C(C)=O)cc2)cc1O (stereo not shown) | -13.1
24 | CCOC(=O)N1CCN(C(=O)CCN2C(=O)/C(=C\c3ccccc3OC)SC2=S)CC1 | -4.5
25 | COc1ccc(CN2CCC(=O)N([C@H](CO)CC(C)C)CC2)cc1OC | -7.9

Source: article PMC4336329 (PLoS ONE, 2015)
